Laboratory results: PubChem BioAssay
Inconclusive means that the source gave no clear call. Such entries were picked first, then a sample of the others. Activity calls are given as the source filed them.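 Rule for the calls, unless noted: active = thallium entry rate above the same plate's blocked-transporter control wells by more than 3 SD; inconclusive = the two repeat wells disagree; inactive = the rest.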 Where a SMILES comes first, the peptide text is derived from it. [ ]: non-standard residue; d: D form. The star is where a group is joined. ξ: configuration not given here. ξF = NC(Cc1ccccc1)C(=O)O; Cbz = O=C(OCc1ccccc1)*

Key:
[1] = FluoZin2 fluorescence counter-screen of MLSMR hits on KCC2-expressing cells (AID 1714); conditions: HEK293-KCC2 + bumetanide/ouabain, at 10 µM, hits give high values;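 note: raw slope of fluorescence over initial fluorescence between 10 and 20 s after thallium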
How it was run: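 Assay system: HEK cells expressing the K-Cl cotransporter KCC2; buffer or medium: HBSS-HEPES plus ouabain 0.2 mM, bumetanide 2 mM; reagent: thallium stimulus; compound dosing: 10 µM single dose; timing: 48 min dye loading; signal: FluoZin2-AM (0.5 µM) fluorescence, 480 nm ex/540 nm em, 1 Hz kinetic imaging; replication: duplicates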

[2] = biological target: Solute carrier family 12 member 5 (Homo sapiens) (UniProt Q9H2X9); test: retest of KCC2 transport modulation, ouabain-free – cell-based, HEK293 KCC2, thallium flux, FluoZin2, secondary assay 2, confirmation (AID 1715;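 active = thallium flux slope more than 3 SD above or below the plate's solvent-only control mean, mostly below; inconclusive = the two repeat wells disagreed; inactive = no significant shift from solvent-only controls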;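 note: raw slope with 0.1% DMSO as baseline and bumetanide as block control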); conditions: HEK293-KCC2, thallium flux FluoZin2 fluorescence; at 10 µM; actives lie on both sides; F/F0 rise rate, 10–20 s post-thallium
[3] = biological target: Solute carrier family 12 member 5 (Homo sapiens) (UniProt Q9H2X9); test: modulation of KCC2 thallium flux in HEK cells – cell-based, ouabain, retest, confirmation (AID 1717;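 active = thallium flux slope beyond 3 SD from same-plate DMSO control mean in most replicates, usually higher, sometimes lower; inconclusive = repeat tests gave conflicting results; inactive = no significant difference from controls in most replicates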;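 note: slope of initial-normalized fluorescence between seconds 10 and 20 after thallium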); conditions: HEK293-KCC2, thallium flux FluoZin2 fluorescence, at 10 µM, bidirectional: low = inhibitor, high = activator
[4] = compound effects on native HEK Tl+ uptake – HEK cells, counterscreen 1, counter-screen for KCC2 modulator project, confirmation (AID 1716;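 active = thallium flux rate significantly above the same plate's solvent-only control wells, beyond their mean plus 3 SD; inconclusive = the two replicate wells gave conflicting results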); conditions: HEK293 parental cells, thallium flux FluoZin2, ouabain; at 10 µM; baseline-ratio fluorescence slope, 10–20 s after thallium
[5] = native HEK Tl+ uptake effects, second counter-screen – HEK cells, counterscreen 2, counter-screen for KCC2 modulator project, confirmation (AID 1718;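 active = thallium flux slope above the same plate's solvent-control mean plus 3 SD in both duplicate wells; inconclusive = duplicate wells that disagreed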;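 note: run without ouabain in cells lacking the KCC2 cotransporter; slope of fluorescence scaled to its starting value between 10 and 20 s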); conditions: HEK293 parental, thallium flux FluoZin-2 fluorescence slope; at 10 µM
How it was run: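 Test system: parental HEK cells / Reagent: thallium sulfate stimulus, 12 mM in buffer, pH 7.3 / Compound: single 10 µM final compound dose, 0.1% DMSO / Timing: overnight cell culture at 37 °C, 48 min dye loading, compound before thallium / Detection: FluoZin-2 fluorescence kinetics / Read-out: rate of F/F0 rise, 10–20 s after thallium addition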

Chain of UniProt Q9H2X9 (Q9H2X9 whole entry, looked up): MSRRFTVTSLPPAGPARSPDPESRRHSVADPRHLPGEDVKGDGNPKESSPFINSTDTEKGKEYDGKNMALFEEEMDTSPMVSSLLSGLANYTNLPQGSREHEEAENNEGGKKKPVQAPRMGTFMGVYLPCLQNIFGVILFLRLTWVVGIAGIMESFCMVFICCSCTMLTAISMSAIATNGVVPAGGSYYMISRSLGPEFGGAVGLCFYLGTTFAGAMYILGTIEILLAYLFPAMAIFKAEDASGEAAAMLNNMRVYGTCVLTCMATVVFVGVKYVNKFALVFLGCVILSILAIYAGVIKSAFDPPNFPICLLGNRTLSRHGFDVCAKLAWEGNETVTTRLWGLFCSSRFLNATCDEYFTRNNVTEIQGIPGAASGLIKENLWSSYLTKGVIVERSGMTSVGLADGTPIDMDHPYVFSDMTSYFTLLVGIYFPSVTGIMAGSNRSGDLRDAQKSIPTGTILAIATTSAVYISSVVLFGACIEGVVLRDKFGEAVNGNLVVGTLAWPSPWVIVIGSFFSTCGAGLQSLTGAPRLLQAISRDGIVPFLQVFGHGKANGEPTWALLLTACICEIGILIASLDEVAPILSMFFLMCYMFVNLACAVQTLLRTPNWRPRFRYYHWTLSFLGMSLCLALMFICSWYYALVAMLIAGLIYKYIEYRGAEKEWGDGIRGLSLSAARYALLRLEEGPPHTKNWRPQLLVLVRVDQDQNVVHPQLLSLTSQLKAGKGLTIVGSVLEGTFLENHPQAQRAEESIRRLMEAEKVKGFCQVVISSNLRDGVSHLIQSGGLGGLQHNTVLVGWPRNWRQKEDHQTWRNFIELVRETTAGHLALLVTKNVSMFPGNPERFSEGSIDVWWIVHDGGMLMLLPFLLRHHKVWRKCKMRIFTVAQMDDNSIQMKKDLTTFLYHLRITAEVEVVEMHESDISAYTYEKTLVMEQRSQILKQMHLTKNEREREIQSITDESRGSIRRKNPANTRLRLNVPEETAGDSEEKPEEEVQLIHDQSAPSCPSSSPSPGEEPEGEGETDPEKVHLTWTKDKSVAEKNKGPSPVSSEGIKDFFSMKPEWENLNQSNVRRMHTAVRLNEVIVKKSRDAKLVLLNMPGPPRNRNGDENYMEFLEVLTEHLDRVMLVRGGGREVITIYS

SMILES | normalized thallium flux [1] | normalized thallium flux [2] | raw Tl+ flux slope (below DMSO = inhibition, above = activation) [3] | thallium flux rate (normalised fluorescence) [4] | thallium flux slope [5]
O=C(COc1ccc2ccccc2c1Br)Nn1cnnc1 | inconclusive: 0.00543 | active: 0.0251 | inconclusive: 0.0168 | – | –
Cc1nc2c(-c3ccc(Cl)cc3)c(C)[nH]n2c(=O)c1Cc1ccccc1 | active: 0.0129 | inconclusive: 0.0263 | inconclusive: 0.0217 | – | –
Cc1ccc(CCNC(=O)c2ccc(CS(=O)(=O)Cc3ccccc3F)o2)cc1 | inconclusive: 0.00535 | inconclusive: 0.0265 | inactive: 0.0176 | – | –
Cc1cccc(NC(=S)N/N=C/c2cccn2Cc2ccc(F)cc2)c1 | active: 0.00879 | inconclusive: 0.026 | inactive: 0.0203 | inactive: 0.00809 | –
CCOC(=O)N1CCN(C(=O)CSc2ccc(-c3ccccc3)nn2)CC1 | inconclusive: 0.00709 | active: 0.0277 | active: 0.0143 | – | –
Cc1nn(-c2nc3ccccc3[nH]2)c(N)c1-c1ccccc1 | active: 0.0123 | inactive: 0.032 | inconclusive: 0.0242 | – | –
O=C(N/N=C/c1ccc(OCc2ccccc2)cc1)c1cc[n+](Cc2ccccc2)cc1 | inconclusive: 0.00632 | active: 0.0241 | inconclusive: 0.0172 | inactive: 0.00787 | inactive: 0.0117
Cc1ccc(Cn2c(=N)c(C(=O)NCc3ccco3)cc3c(=O)n4ccccc4nc32)cc1 | inconclusive: 0.00341 | inconclusive: 0.0274 | inactive: 0.0181 | – | –
Cc1ccc(OCc2nc(C#N)c(NCc3ccc4c(c3)OCO4)o2)cc1 | inconclusive: 0.00325 | inconclusive: 0.0253 | – | inconclusive: 0.00619 | inactive: 0.00878
COC(=O)CSc1nnc(SCc2ccccc2)s1 | inconclusive: 0.00505 | active: 0.0213 | active: 0.0118 | active: 0.00598 | –
Cc1ccccc1OCC(=O)NNC(=O)CCN1C(=O)c2ccccc2C1=O | inactive: 0.00559 | active: 0.0234 | inconclusive: 0.017 | inactive: 0.00775 | inactive: 0.0111
O=C(CN(c1ccc2c(c1)OCCO2)S(=O)(=O)c1ccccc1)N1CCN(Cc2ccccc2)CC1 | inconclusive: 0.00564 | active: 0.0234 | inconclusive: 0.0165 | – | –
O=[N+]([O-])c1ccc(-c2cn(-c3ccccc3F)c(=S)[nH]2)cc1 | active: 0.0117 | inactive: 0.0308 | inconclusive: 0.0249 | – | –
O=C(Nc1ccc(Cc2ccncc2)cc1)c1ccc(N2CCOCC2)c([N+](=O)[O-])c1 | inconclusive: 0.00752 | inconclusive: 0.0287 | active: 0.0157 | – | –
CCC(c1nnc(SCc2nc3ccccc3s2)n1Cc1ccccc1)N(C)C (stereo not drawn) | inactive: 0.00464 | inconclusive: 0.0276 | inactive: 0.0139 | – | –
CCOC(=O)CNC(=O)C(Cc1ccccc1)NC(=O)OCc1ccccc1 (stereo not drawn) (Cbz-[ξF]-Gly-OEt) | inactive: 0.00523 | active: 0.0251 | inconclusive: 0.0161 | – | –
Cc1ccc(C)c(S(=O)(=O)NC(CC(C)C)C(=O)O)c1 (stereo not drawn) | inconclusive: 0.00756 | inactive: 0.0311 | inactive: 0.0145 | – | –
CCOc1ccc2nc(NC(=O)CSc3nc(-c4ccccc4)c(C#N)c(=O)[nH]3)sc2c1 | inconclusive: 0.00412 | inactive: 0.035 | inactive: 0.021 | – | –
Cc1c(C(=O)NCc2ccccn2)oc2ccc(S(=O)(=O)N3CCOCC3)cc12 | inconclusive: 0.00567 | inconclusive: 0.0287 | inactive: 0.0194 | – | –
CC(C)C(=O)N/N=C/c1ccc(OCc2ccccc2)cc1 | inactive: 0.0051 | inactive: 0.0299 | inconclusive: 0.0158 | – | inactive: 0.0104
CN1c2ccccc2Oc2nnc(N3CCN(Cc4ccccc4)CC3)cc21 | inconclusive: 0.00548 | active: 0.0212 | inconclusive: 0.0156 | – | –
CC1=NN(C(=O)c2ccc(Br)cc2)C(O)(C(F)(F)OC(F)(F)F)C1 (stereo not drawn) | active: 0.00988 | inactive: 0.0309 | active: 0.0289 | – | inconclusive: 0.0106
CN1c2ccccc2-c2nc3ccccc3n2C1c1ccco1 (stereo not drawn) | inconclusive: 0.00451 | inactive: 0.0321 | inconclusive: 0.0178 | – | –
CC(NC(=O)c1ccnc(C(C)(C)C)c1)c1ccccc1 (stereo not drawn) | inconclusive: 0.00532 | inconclusive: 0.0265 | inactive: 0.0151 | – | inactive: 0.00941
CCOc1nc(-c2ccncc2)nc2ccccc12 | inactive: 0.00404 | inconclusive: 0.0285 | inactive: 0.0165 | – | –
CCN(CC)Cc1c(O)ccc2c(C)c(CC(=O)OC)c(=O)oc12 | inconclusive: 0.00543 | inactive: 0.033 | inactive: 0.0194 | – | inactive: 0.0117
Cc1cc(C=C2C(=O)c3ccccc3C2=O)c(C)n1-c1cccc(C(=O)O)c1 | inconclusive: 0.00311 | active: 0.0203 | active: 0.0101 | – | –

SMILES | normalized thallium flux [1] | normalized thallium flux [2] | raw Tl+ flux slope (below DMSO = inhibition, above = activation) [3] | thallium flux rate (normalised fluorescence) [4] | thallium flux slope [5]
CC(=O)C(Sc1ncnc2sc3c(c12)CCCC3)C(C)=O | active: 0.0999 | inactive: 0.0294 | inconclusive: 0.0411 | – | –
CN(C(=O)CSc1nc2ccccc2n1CCc1ccccc1)C1CCS(=O)(=O)C1 (stereo not drawn) | active: 0.0149 | inactive: 0.0306 | inconclusive: 0.0235 | – | –
Cc1ccc2nc3c(cc2c1)CN(Cc1ccco1)C(=NCC1CCCO1)S3 (stereo not drawn) | inconclusive: 0.00554 | inactive: 0.033 | inactive: 0.0194 | – | –
CC1CCCN(C(=O)CSc2nnc(-c3c[nH]c4ccccc34)o2)C1 (stereo not drawn) | inactive: 0.00441 | inconclusive: 0.027 | inconclusive: 0.0148 | – | –
O=C(CSc1nnc(CNc2ccccc2)o1)c1ccc2c(c1)OCCO2 | inconclusive: 0.00551 | active: 0.0238 | inconclusive: 0.0166 | – | –
O=C(CCSCCc1ccccn1)Nc1ccc(Cc2ccncc2)cc1 | inactive: 0.00439 | inconclusive: 0.0269 | inactive: 0.0176 | – | –
CC(C)NC(=O)C1CCN(C(=O)C(C(=O)c2ccccc2)n2cc(Cl)ccc2=O)CC1 (stereo not drawn) | inconclusive: 0.00717 | inactive: 0.0364 | inactive: 0.0237 | – | inconclusive: 0.0111
CCOc1ccccc1CNC(=O)C1CCN(c2nc3ccccc3o2)CC1 | inconclusive: 0.00667 | inconclusive: 0.0263 | inactive: 0.0143 | – | –
COc1ccc(C(c2nnnn2Cc2cccs2)N2CCN(c3ccccc3F)CC2)cc1 (stereo not drawn) | inconclusive: 0.00535 | inconclusive: 0.0271 | active: 0.0176 | – | –
O=C(Nc1cc(S(=O)(=O)N2CCCCC2)ccc1Cl)c1ccccc1NS(=O)(=O)c1ccc(F)cc1 | inactive: 0.0065 | inconclusive: 0.0263 | inconclusive: 0.0176 | – | –
CCOC(=O)C1CCCN(C(=O)CCCn2nc(C)n3c(cc4sccc43)c2=O)C1 (stereo not drawn) | active: 0.00876 | inactive: 0.0333 | inactive: 0.0208 | – | –
O=C(NNC(=S)NC(=O)c1ccccc1[N+](=O)[O-])c1ccc(Cl)cc1Cl | active: 0.0155 | inactive: 0.0307 | inconclusive: 0.0218 | – | –
CCn1c(=O)c2cc(C(=O)N(C)c3cc(C)ccc3OC)sc2c2ccccc21 | inconclusive: 0.0077 | inactive: 0.0331 | inactive: 0.0187 | – | inconclusive: 0.00994
C/C=C/Cn1c(SCCCc2ccccc2)nc2c1c(=O)[nH]c(=O)n2C | inactive: 0.00394 | inconclusive: 0.0259 | inconclusive: 0.0159 | – | –
Cc1nc(C(=O)NNC(=O)c2ccc(C(F)(F)F)cc2)cs1 | active: 0.0199 | inactive: 0.029 | inconclusive: 0.0258 | – | inconclusive: 0.00982
COC(=O)C(Cc1ccc(O)cc1)NC(=O)c1ccccc1OC (stereo not drawn) | inconclusive: 0.00686 | inactive: 0.0307 | inactive: 0.0176 | – | –
CCC1CCCCN1C(=O)c1c[nH]c2ccc(S(=O)(=O)N(C)c3ccc(Cl)cc3)cc2c1=O (stereo not drawn) | inconclusive: 0.00511 | inconclusive: 0.0272 | inactive: 0.0154 | – | –
CCn1c(NC(=O)c2cccs2)nc2ccccc21 | active: 0.0295 | inactive: 0.0358 | inconclusive: 0.027 | – | –
Cc1ccc(C(=O)Nc2nc(=O)n(C(=O)c3ccccc3Cl)s2)cc1 | inconclusive: 0.00572 | active: 0.0238 | active: 0.0124 | – | –
Cc1onc(-c2cccc(Cl)c2Cl)c1C(=O)O/N=C(\N)c1ccc([N+](=O)[O-])o1 | inactive: 0.00326 | inconclusive: 0.0253 | inactive: 0.0169 | – | –
O=C(CSc1nnnn1-c1ccc(Cl)cc1)N1CCc2ccccc2C1 | inconclusive: 0.00533 | active: 0.0248 | inconclusive: 0.0172 | – | –
CN(C)CCNC(=O)c1ccc(Cl)s1 | inactive: 0.00673 | inactive: 0.0318 | inactive: 0.0501 | – | inconclusive: 0.0101
O=C(CSc1nnc(Cc2ccccc2)o1)c1ccccc1 | inconclusive: 0.00571 | active: 0.0237 | inconclusive: 0.0169 | – | inactive: 0.0107
O=C(/C=C/c1cccc([N+](=O)[O-])c1)Nc1cccc(NC(=O)c2cccs2)c1 | inconclusive: 0.00536 | – | – | inactive: 0.0072 | –
CCCCCn1c(=S)[nH]c2ncccc2c1=O | active: 0.12 | – | – | inconclusive: 0.0529 | –
CCn1nc(NC(=O)c2ccccn2)c2cc3cc(C)ccc3nc21 | inactive: 0.00362 | inactive: 0.0262 | – | – | inconclusive: 0.00898
